Holding throughout (experiment): Primary Screen for Target Class Profiling of Small Molecule Inhibitors of Methyltransferases
Assay [1] has as its target Glycine N-methyltransferase (Homo sapiens) (UniProt Q14749). To be noted: purified enzyme, MTase-Glo SAH luminescence; measured here: GNMT inhibition; at 40 µM; stronger effect = lower value. A digest of the protocol:
(§1)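 Each enzyme was reacted with SAM and its substrate, with compounds tested once at 40 uM; SAH formed was read by MTase-Glo luminescence.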

Assay [2] concerns the target Guanidinoacetate N-methyltransferase (Homo sapiens) (UniProt Q14353). To be noted: purified enzyme, MTase-Glo SAH luminescence; measured here: GAMT inhibition; at 40 µM; stronger effect = lower value. The gist of the method:
as §1

The target in assay [3] is Histamine N-methyltransferase (Homo sapiens) (UniProt P50135). To be noted: purified enzyme, MTase-Glo SAH luminescence; measured here: HNMT inhibition; at 40 µM; stronger effect = lower value. A digest of the protocol: as §1
The target of assay [4] is Nicotinamide N-methyltransferase (Homo sapiens) (UniProt P40261). To be noted: purified enzyme, MTase-Glo SAH luminescence; measured here: NNMT inhibition; at 40 µM; stronger effect = lower value. The gist of the method: as §1
The target in assay [5] is Phenylethanolamine N-methyltransferase (Homo sapiens) (UniProt P11086). To be noted: purified enzyme, MTase-Glo SAH luminescence; measured here: PNMT inhibition; at 40 µM; stronger effect = lower value. The gist of the method:
as §1

The other results are listed elsewhere or left out. Further columns of the screen follow, without active or inactive calls.
On the % scale 0 is the no-effect control and ±100 the full control effect.

Take `c1cncc(CN2CC[C@H](c3nnc(Cc4c[nH]c5ccccc45)o3)C2)c1`: the activity change, negative = inhibition was -9.52% in assay [1]; -2.64% in assay [2]; -6.95% in assay [3]; -5.76% in assay [4]; 9.22% in assay [5].

Turning to `O=C(C(Cc1cccc(C(F)(F)F)c1)NS(=O)(=O)c1cc(F)c2c(c1)CCNC2)N1CCCC1` (configuration not stated), the activity change, negative = inhibition in assay [1] is 0.832%; in assay [2] it was -5.72%; in assay [3], -5.93%; in assay [4], -19.9%; in assay [5], -11.5%.

Regarding `CCCn1c(=O)c2ccccc2n2c(SCC(=O)Nc3ccc(F)cc3)nnc12`, the activity change, negative = inhibition in assay [1] is -5.67%; in assay [2] it was 5.84%; in assay [3], 2.62%; in assay [4] it was 0.316%; in assay [5] it was 0.479%.

As for `CCN(CC)c1nc2c(-c3ccc(Cl)cc3)nnn2c2ccccc12`, the activity change, negative = inhibition in assay [1] was -5.21%; in assay [2] it was -2.99%; in assay [3] it was -1.51%; in assay [4] it was 0.64%; in assay [5], -6.09%.

Take `CC1CCCCN1CCN1C(=O)c2ccc(-c3ccco3)n2CC1(C)C(=O)NC1CCCC1` (configuration not stated): the activity change, negative = inhibition in assay [1] was determined as 8.19%; in assay [2] it was 2.94%; in assay [3], 7.55%; in assay [4], 13.6%; in assay [5], 3.57%.

Turning to `NC(=O)[C@@H](Cc1c[nH]c2ccccc12)NC(=O)[C@H]1CN(C(=O)C2CCNCC2)CCN1C(=O)N1CCOCC1`, the activity change, negative = inhibition in assay [1] was -6.3%; in assay [2], -5.7%; in assay [3], -1.31%; in assay [4] it was -6.26%; in assay [5], -2.12%.

Take `COc1nc2nc(CC3CC3)n(C)c2cc1-c1ccc(O)c(F)c1`: the activity change, negative = inhibition in assay [1] is -33.3%; in assay [2], -8.65%; in assay [3], -9.44%; in assay [4], -43.4%; in assay [5], -8.54%.

For the compound `Cn1c(=O)c2ccc(C(=O)NC3CCCC3)cc2n2c(SCc3ccccc3Cl)nnc12`, the activity change, negative = inhibition in assay [1] is -2.62%; in assay [2], 0%; in assay [3], 6.32%; in assay [4], 8.29%; in assay [5] it was 0.473%.

Consider `COCCNCc1ccc(-c2cc3nccc(Oc4ccc(NC(=S)NC(=O)Cc5ccc(F)cc5)cc4F)c3s2)nc1`, for which the activity change, negative = inhibition was -8.98% in assay [1]; -3.75% in assay [2]; 0.462% in assay [3]; -19% in assay [4]; 0.61% in assay [5].

Consider `C[C@]1(CO)C2CC[C@@H](O)[C@@H](CC(=O)N3CCC[C@H]3CO)[C@]2(C)CC[C@H]1OC(=O)Nc1cccc(F)c1` (some centres not stated), for which the activity change, negative = inhibition in assay [1] was -2.17%; in assay [2] it was -0.993%; in assay [3], 0.366%; in assay [4] it was -4.98%; in assay [5] it was 1.31%.

For the compound `CN1C(=O)c2cc(C(=O)NCc3ccccn3)nn2CC1(C)C(=O)NCc1ccc(F)cc1` (configuration not stated), the activity change, negative = inhibition in assay [1] was found to be 5.15%; in assay [2] it was 0%; in assay [3], 7.64%; in assay [4], 4.64%; in assay [5] it was 4.79%.

Turning to `COc1ccc(C(=O)N2CCN(c3cc(-c4cccs4)[nH]n3)CC2)cc1OC`, the activity change, negative = inhibition in assay [1] was -12.5%; in assay [2] it was -8.46%; in assay [3], -4.72%; in assay [4], -28.4%; in assay [5], -6.63%.

On to `CC(N)C(=O)OC(C)(C)Cc1ccc(Cl)cc1` (configuration not stated), for which the activity change, negative = inhibition is 5.78% in assay [1]; 12.8% in assay [2]; 1.51% in assay [3]; -2.04% in assay [4]; 8.79% in assay [5].

Consider `C=Cc1ccc(Cn2nc3n(C(C)C)c(=O)c4ccc(C(=O)NC(C)C)cc4n3c2=O)cc1`, for which the activity change, negative = inhibition in assay [1] was determined as 1.4%; in assay [2], 0%; in assay [3] it was 6.17%; in assay [4] it was 2.35%; in assay [5] it was 6.79%.

Regarding `COc1ccc(NC(=O)CCc2nnc3n(Cc4ccccc4Cl)c(=O)c4ccccc4n23)cc1`, the activity change, negative = inhibition was 4.88% in assay [1]; 1.6% in assay [2]; 3.8% in assay [3]; 3.23% in assay [4]; -0.232% in assay [5].

As for `CC(=O)NC(Cc1c[nH]c2ccccc(=O)c12)C(=O)O` (configuration not stated), the activity change, negative = inhibition in assay [1] was 1.41%; in assay [2], 2.86%; in assay [3] it was -21.1%; in assay [4] it was -10.2%; in assay [5], -3.25%.

As for `CCc1cccc(N2C(=O)CSc3c(c4ccccc4n3C)C2C(=O)NCCC(C)C)c1` (configuration not stated), the activity change, negative = inhibition in assay [1] turned out to be 9.88%; in assay [2], 0%; in assay [3], 1.62%; in assay [4], 4.22%; in assay [5], 5.63%.

On to `COc1ccc(S(=O)(=O)NCCNc2cc(C)nc3ccnn23)cc1`, for which the activity change, negative = inhibition in assay [1] was -4.26%; in assay [2] it was -5.5%; in assay [3], -0.865%; in assay [4], -6.97%; in assay [5], -3.56%.

Take `CC(NC(=O)Cc1cc(F)cc(F)c1)C(=O)NC1C(=O)N(C)c2ccccc2-c2ccccc21` (configuration not stated): the activity change, negative = inhibition was -8.96% in assay [1] and -10.3% in assay [3].

Consider `CCC(C)NC(=O)c1ccc2c(=O)n(CC(C)C)c3nn(CC(=O)Nc4ccc(C)c(C)c4)c(=O)n3c2c1` (configuration not stated), for which the activity change, negative = inhibition in assay [1] worked out at 3.17%; in assay [2], 0%; in assay [3] it was 4.82%; in assay [4] it was 4.43%; in assay [5] it was 3.92%.

In the case of `O=C(OCc1cccc(O)c1O[C@@H]1O[C@H](CO)[C@@H](O)[C@H](O)[C@H]1O)C1(O)C(=O)C2C=CC1C1C=CC(=O)C(O)(C(=O)OCc3cccc(O)c3O[C@@H]3O[C@H](CO)[C@@H](O)[C@H](O)[C@H]3O)C21` (some centres not stated), the activity change, negative = inhibition in assay [1] was 4.91%; in assay [2] it was 4.3%; in assay [3] it was 9.03%; in assay [4] it was -6.15%; in assay [5], 5.96%.

On to `OC[C@H]1O[C@@H](Oc2ccc3c(c2)OC[C@H]2c4cc5c(cc4O[C@@H]32)OCO5)[C@H](O)[C@@H](O)[C@@H]1O`, for which the activity change, negative = inhibition in assay [1] is 4.83%; in assay [2], -0.058%; in assay [3], 6.08%; in assay [4] it was -7.88%; in assay [5] it was 1.36%.

For `Cc1ccc(NC(=O)c2cc3n(n2)CC(C)(C(=O)NC2CCCCCC2)N(C)C3=O)cc1C` (configuration not stated), the activity change, negative = inhibition in assay [1] was 0.293%; in assay [2] it was 4.92%; in assay [3] it was 0.625%; in assay [4], -0.709%; in assay [5], -0.009%.

`Cc1ccc(CCNC(=O)c2ncn3c2C(=O)N(C2CC2)C(C)(C(=O)NCc2ccc(C)cc2)C3)cc1` (configuration not stated): the activity change, negative = inhibition in assay [1] stood at 2.7%; in assay [2] it was 8.65%; in assay [3], 5.72%; in assay [4], 0.465%; in assay [5], 0.943%.

`C[S+](=O)([O-])N1CC2(Cc3ccccc31)CN(C(=O)NC1CCCC1)C2`: the activity change, negative = inhibition in assay [1] is 0.268%; in assay [2] it was -2.88%; in assay [3], 2.87%; in assay [4], -3.85%; in assay [5], 2.24%.

As to `COc1ccc(CCN2C(=O)c3cc4occc4n3CC2(C)C(=O)NC2CCCCC2C)cc1OC` (configuration not stated), the activity change, negative = inhibition in assay [1] was 0.221%; in assay [2], 0.263%; in assay [3] it was -0.366%; in assay [4] it was -24.1%; in assay [5], -1.89%.

Turning to `Cc1cn2c(n1)Cc1ccc(Cl)cc1C(c1ccc(N)cc1)=N2`, the activity change, negative = inhibition in assay [1] is -4.84%; in assay [2] it was -8.84%; in assay [3] it was -5.94%; in assay [4], -44%; in assay [5], -7.85%.

For the compound `CCCn1c(=O)c2cc(Cl)ccc2n2c(=O)n(Cc3ccc(F)cc3)nc12`, the activity change, negative = inhibition was 6.66% in assay [1]; 0% in assay [2]; 12.4% in assay [3]; 3.81% in assay [4]; 5.65% in assay [5].

The record behind these values is PubChem BioAssay AID1745853 (National Center for Advancing Translational Sciences (NCATS), 2022).
